Test results reported in PubChem BioAssay AID2100 (National Center for Advancing Translational Sciences (NCATS), 2009).
Screen size: about 300,000 compounds; about 1,200 (0.4%) were called active. Inconclusive results, whose numbers are uncertain, are shown with a selection of clear calls. Calls follow the shape of the dose curve; as a rule, active = well fitted inhibition curve with a large enough effect; inconclusive = small, poorly fitted or top-dose-only effect, or another doubt; inactive = no such curve, though single readings can be large or run the other way. Potencies of inconclusive entries are doubtful fits and often do not repeat.

These molecules were tested against Lysosomal alpha-glucosidase (Homo sapiens) (UniProt P10253) (assay: qHTS Assay for Inhibitors and Activators of Human alpha-Glucosidase Cleavage of Glycogen). Details: recombinant GAA, glycogen substrate, Amplex Red glucose oxidase fluorescence; activity change, negative = inhibition: at 76.4 µM (top of the series) unless noted.
Procedure, shortened: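 Recombinant enzyme (4 nM final) with compounds titrated up to 77 uM and bovine liver glycogen (30 ug) in citrate pH 5.0, 0.01% Tween-20, 37 C 40 min. Released glucose detected by Amplex Red/glucose oxidase (Ex 573/Em 610); AC50 from Hill fits.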
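For activity change, negative = inhibition in this document: 0% = full enzyme reaction and -100% = no-enzyme basal signal.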
Potency is read from the fitted curve at half-maximal effect.

| SMILES | activity change, negative = inhibition | Potency |
| --- | --- | --- |
| CN(C)S(=O)(=O)c1ccc(C(=O)Nc2ccc(CN3CCCC3)cc2)cc1 | inconclusive: 46.5% [activator] | – |
| O=[N+]([O-])c1ccc(O)c(C=Nc2ccc3c(c2)OCO3)c1 | – | inconclusive: 50.1 µM [inhibitor, single point] |
| CN1CCc2cccc3c2[C@@H]1Cc1ccc(O)c(O)c1-3 | – | active: 3.52 µM |
| O=c1cc2oc3cc(O)c(O)cc3c(-c3ccccc3O)c-2cc1O | – | inconclusive: 17.8 µM [inhibitor, partial curve] |
| COc1ccc(Cl)cc1NC(=O)CSc1nc(-c2ccccc2)c2ccccc2n1 | – | inconclusive: 50.1 µM [inhibitor, single point] |
| O=C(CC1SC(=O)N(c2ccccc2)C1=O)Nc1ccccc1 (configuration not stated) | – | inconclusive: 31.6 µM [inhibitor, single point] |
| O=c1oc2ccc(Cl)cc2nc1/C=C(\O)c1cccs1 | – | active: 6.31 µM |
| NNC(=O)C(=O)Nc1ccc(Cl)c(Cl)c1 | – | inconclusive: 14 µM [inhibitor, partial curve] |
| Cc1ccc(-c2nc3ccccn3c2Nc2ccccc2)o1 | – | active: 7.94 µM |
| O=C(COC(=O)c1cc(NS(=O)(=O)c2cccs2)ccc1O)Nc1ccccc1 | – | inconclusive: 35.5 µM [inhibitor, partial curve, poor fit] |
| Cc1ccc(-c2nc3ccccn3c2Nc2ccc3c(c2)OCCO3)o1 | – | active: 4.47 µM |
| C[n+]1nc(Nc2cccc3ccccc23)sc1-c1ccc(C(=O)O)cc1 | – | inconclusive: 39.8 µM [activator, single point] |
| c1ccc2c(c1)CC/C2=N/Nc1nc2ccccc2[nH]1 | – | inconclusive: 14.1 µM [inhibitor, partial curve] |
| O=C(/C=C\Nc1ccc2c(c1)OCO2)c1ccccn1 | inactive: -3.79% | – |
| Cc1sc(NC(=S)Nc2ccc(F)cc2)c(C(N)=O)c1C | – | inconclusive: 15.7 µM [inhibitor, partial curve] |
| CCCC(O)(CCC)C(=O)NNc1ccc(C)cc1 | – | inconclusive: 14.1 µM [inhibitor, partial curve] |
| CCCC(=O)NNc1cc(=O)c2c(=O)n(C)c(=O)n(C)c2[nH]1 | – | inconclusive: 12.5 µM [inhibitor, partial curve] |
| CCc1ccc(CN(C(=O)Nc2cccc(Cl)c2)c2ccccn2)cc1 | inactive: -10% [at 76.3 µM] | – |
| CCC1C(=O)N=C(SCC(=O)Nc2nc3ccccc3s2)NC1=O (configuration not stated) | – | inconclusive: 10 µM [inhibitor, single point] |
| O=C1/C(=C/c2ccc(O)c(O)c2)Oc2cc(O)ccc21 | – | active: 22.4 µM |
| Cc1csc(N/N=C\c2cccnc2)n1 | – | inconclusive: 7.94 µM [inhibitor, full curve] |
| NNc1nc2c(F)cccc2s1 | – | inconclusive: 17.8 µM [inhibitor, partial curve] |
| CCOc1ccc(S(=O)(=O)c2c(C(=O)c3ccc(C)c(C)c3)cnc3ccccc23)cc1 | inactive: 9.09% [at 76.3 µM] | – |
| O=c1c2ccccc2sn1-c1nccs1 | – | inconclusive: 10 µM [inhibitor, partial curve] |

| SMILES | activity change, negative = inhibition | Potency |
| --- | --- | --- |
| CC1=C([N+](=O)[O-])C(c2ccc(O)c(O)c2)NC(=O)N1 (configuration not stated) | – | inconclusive: 3.55 µM [inhibitor, full curve] |
| CN(C)c1ccc(N=Cc2nc(-c3ccccc3)oc2O)cc1 | – | inconclusive: 14.1 µM [inhibitor, partial curve] |
| COc1ccc(-n2c(N)c(C(=O)NCc3ccco3)c3nc4ccccc4nc32)cc1 | inactive: 3.72% | – |
| COc1cc(/C=N/NC(=O)CCN2CCCCC2)ccc1O | – | inconclusive: 25.1 µM [inhibitor, partial curve] |
| COC(=O)c1c(NC(NC(=O)C(C)(C)C)C(Cl)(Cl)Cl)sc2c1CCC2 (configuration not stated) | – | inconclusive: 35.5 µM [inhibitor, single point] |
| COc1cccc2sc(NN)nc12 | – | inconclusive: 28.2 µM [inhibitor, single point] |
| Cc1ccccc1Cn1c(=O)n(C)c(=O)c2sccc21 | – | inconclusive: 3.55 µM [inhibitor, full curve] |
| CCOC(=O)C1=C(C)N(c2ccccc2)C(=O)/C1=C\c1ccc(O)c(OC)c1 | – | inconclusive: 19.8 µM [inhibitor, partial curve] |
| COc1ccc(Nc2nc(-c3ccccc3)cs2)cc1 | – | inconclusive: 31.6 µM [inhibitor, partial curve] |
| N/C(=N\OC(=O)c1ccc(Cl)cc1)c1ccccn1 | inactive: 8.44% | – |
| Cc1ccc(-c2nnc(Nc3ccc(O)cc3)c3ccccc23)cc1S(=O)(=O)N1CCCCC1 | – | inconclusive: 22.4 µM [inhibitor, partial curve] |
| O=c1c2cccnc2n(Cc2cccc(F)c2)c(=O)n1Cc1ccccc1Cl | inactive: -5.47% [at 76.3 µM] | – |
| COc1ccc(Cn2nnnc2CN2CCc3ccccc32)cc1 | – | inconclusive: 17.8 µM [inhibitor, partial curve] |
| Cc1nnc(N/N=C/c2ccc(Br)cc2)n1N | – | inconclusive: 25.1 µM [inhibitor, single point] |
| COc1ccccc1Nc1nc(N)nc(CN2CCN(Cc3ccccc3)CC2)n1 | inactive: -3.16% | – |
| COc1cc(CCC(C)NCc2ccccc2)ccc1O (configuration not stated) | – | inconclusive: 3.98 µM [inhibitor, single point] |
| CCOC(=O)c1c(NC(NC(C)=O)C(Cl)(Cl)Cl)sc2c1CCCC2 (configuration not stated) | – | inconclusive: 39.5 µM [inhibitor, single point] |
| O=C1CCCC/C1=N\Nc1ccc(C2CCCCC2)cc1 | – | inconclusive: 39.8 µM [inhibitor, single point] |
| Cc1ccc2c(c1)-c1cc(C)nn1C(c1ccc3c(c1)OCO3)N2 (configuration not stated) | – | inconclusive: 22.4 µM [inhibitor, single point] |
| Cc1ccn2c(NCc3ccccc3)c(-c3cccs3)nc2c1 | – | inconclusive: 9.92 µM [inhibitor, partial curve] |
| O=c1/c(=C/c2ccccn2)sc2nc3ccccc3n12 | inactive: 0.038% | – |
| CN(N)c1nc(C(F)(F)F)nc2ccccc12 | – | active: 11.2 µM |
| COc1cc(/C=N/NC(=O)CCN2CCN(C(c3ccccc3)c3ccccc3)CC2)ccc1O | – | inconclusive: 28.2 µM [inhibitor, partial curve] |
| CCOc1ccc(S(=O)(=O)N(CC(=O)Nc2ccc3c(c2)OCO3)c2ccccc2)cc1 | inactive: 10.4% [at 76.3 µM] | – |

| SMILES | activity change, negative = inhibition | Potency |
| --- | --- | --- |
| COc1cc(CN2CCN(C(=O)CC(C)C)CC2)cc(OC)c1O | – | active: 39.8 µM |
| N#Cc1nc(-c2cccs2)oc1NCc1ccccc1 | – | inconclusive: 31.6 µM [inhibitor, single point] |
| CCn1c(CCNC(=O)c2ccc(F)cc2)nc2ccccc21 | – | inconclusive: 3.14 µM [inhibitor, single point] |
| Cn1c(=O)oc2cc(S(=O)(=O)Nc3ccccc3O)ccc21 | – | inactive |
| Cc1cccc(NNC(=O)c2c(F)cccc2Cl)c1 | – | inconclusive: 39.8 µM [inhibitor, partial curve] |
| CCOC(=O)c1ccc(NC(=S)Nc2ccc(C)cc2)cc1 | inactive: -16.8% | – |
| Cn1c(N)c(C(=O)COC(=O)C2CCCN2C(=O)c2cccs2)c(=O)n(C)c1=O (configuration not stated) | – | inconclusive: 7.94 µM [inhibitor, single point] |
| N#C/C(=C1\C(=O)Nc2c(Cl)cc(Cl)cc21)c1nnc2n1CCCCC2 | inactive: 0.231% | – |
| COc1cccc(C(=O)Nc2ccc(-c3nc4ccccc4o3)c(O)c2)c1 | inactive: 2.59% | – |
| COc1cc(/C=C/C(=O)OCC(=O)c2c(N)n(C)c(=O)n(C)c2=O)ccc1O | – | inconclusive: 31.6 µM [inhibitor, partial curve] |
| CC(C)(C)NC(=O)CN(C(=O)CCN1CCCc2ccccc21)C(C)(C)C | – | inconclusive: 7.08 µM [inhibitor, partial curve] |
| Cc1nc(NN)nc(NCc2ccccc2)n1 | – | inconclusive: 50.1 µM [inhibitor, single point] |
| N#Cc1nc(-c2cccs2)oc1NCC1CCCO1 (configuration not stated) | – | inconclusive: 8.91 µM [inhibitor, partial curve] |
| CCC(=O)Nc1ccc2c(c1)nc1n2CCN(C2CCCCC2)C1 | – | inconclusive: 19.8 µM [activator, single point] |
| COc1ccc(N/N=C(\C=N\O)C(=O)c2ccc(OC)cc2)cc1 | – | inconclusive: 17.8 µM [inhibitor, partial curve] |
| Oc1ccc(/C=N/N2CCN(C3c4ccccc4-c4ccccc43)CC2)c(O)c1 | – | inconclusive: 22.4 µM [inhibitor, partial curve] |
| CCOC(=O)c1sc(/N=C/c2c(O)ccc3ccccc23)cc1C | – | inconclusive: 25.1 µM [inhibitor, partial curve] |
| C=C(C)CC1Nc2ccccc2NC1CC(=C)C (configuration not stated) | – | inconclusive: 39.8 µM [inhibitor, partial curve] |
| Oc1c(/C=N/c2ccccn2)sc2ccccc12 | – | inconclusive: 56.2 µM [inhibitor, partial curve] |
| COc1nc(-c2ccccc2)ccc1-c1noc(-c2cccnc2)n1 | – | inconclusive: 12.6 µM [inhibitor, partial curve, poor fit] |
| Cc1ccc(S(=O)(=O)NNc2nnc(C)c(=O)[nH]2)cc1 | – | inconclusive: 3.14 µM [inhibitor, single point] |
| CCn1cnc2cc(NCc3nc4ccccc4n3C)ccc21 | – | inconclusive: 24.9 µM [inhibitor, single point] |
| COC(=O)c1cc(O)cc(OC)c1C(=O)c1c(O)cc(C)cc1O | – | inconclusive: 17.8 µM [inhibitor, partial curve] |
| CCC(C)(C)n1nnnc1C(c1cc2cc(C)ccc2[nH]c1=O)N1CCCc2ccccc21 (configuration not stated) | inactive: -6.8% | – |
